The text below walks through data of PMC4336329 (PLoS ONE, 2015).

Among all 310,000 compounds or so, about 2,200 (0.71%) showed an effect of 50% or more. Effects have a minus sign here. Some of the results follow.

The target of this assay is human ether-à-go-go-related gene (hERG) potassium channel (human, UniProt Q12809). Briefly: primary screen, population patch clamp on CHO cells stably expressing hERG.
Sequence of human ether-à-go-go-related gene (hERG) potassium channel (Q12809 whole entry, looked up): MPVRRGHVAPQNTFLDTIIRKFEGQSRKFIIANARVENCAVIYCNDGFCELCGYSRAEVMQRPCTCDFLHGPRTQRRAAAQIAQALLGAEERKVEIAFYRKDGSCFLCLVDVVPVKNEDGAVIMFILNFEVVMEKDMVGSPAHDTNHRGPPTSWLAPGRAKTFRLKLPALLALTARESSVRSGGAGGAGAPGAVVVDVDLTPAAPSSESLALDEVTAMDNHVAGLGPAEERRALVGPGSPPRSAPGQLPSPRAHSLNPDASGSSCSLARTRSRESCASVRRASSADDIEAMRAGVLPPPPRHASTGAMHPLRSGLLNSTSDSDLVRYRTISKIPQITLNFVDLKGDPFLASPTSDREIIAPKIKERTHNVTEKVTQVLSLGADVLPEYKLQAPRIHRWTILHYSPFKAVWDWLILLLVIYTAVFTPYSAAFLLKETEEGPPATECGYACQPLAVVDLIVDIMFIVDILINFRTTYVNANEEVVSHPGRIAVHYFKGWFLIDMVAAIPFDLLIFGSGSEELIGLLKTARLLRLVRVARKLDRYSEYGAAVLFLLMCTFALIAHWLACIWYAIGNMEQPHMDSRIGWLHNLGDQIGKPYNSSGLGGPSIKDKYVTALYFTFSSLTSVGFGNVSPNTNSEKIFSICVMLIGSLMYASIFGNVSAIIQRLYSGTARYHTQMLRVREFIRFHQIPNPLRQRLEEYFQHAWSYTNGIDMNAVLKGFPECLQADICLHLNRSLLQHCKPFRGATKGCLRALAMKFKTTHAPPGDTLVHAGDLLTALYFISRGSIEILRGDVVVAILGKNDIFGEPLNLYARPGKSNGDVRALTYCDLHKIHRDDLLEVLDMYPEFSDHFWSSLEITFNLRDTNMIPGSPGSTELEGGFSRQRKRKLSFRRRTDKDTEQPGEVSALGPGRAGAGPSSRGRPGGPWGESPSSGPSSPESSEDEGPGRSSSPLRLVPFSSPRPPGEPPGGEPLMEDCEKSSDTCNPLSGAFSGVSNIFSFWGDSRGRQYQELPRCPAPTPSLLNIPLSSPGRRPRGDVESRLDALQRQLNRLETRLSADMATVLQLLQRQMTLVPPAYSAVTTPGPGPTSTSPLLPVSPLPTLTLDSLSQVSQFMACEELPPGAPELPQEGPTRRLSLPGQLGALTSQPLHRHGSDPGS
Regarding `O=C1CC(N2CCc3ccccc32)C(=O)N1c1ccccc1` (stereo not drawn), the “hERG current change (%, negative = inhibition) at 1uM” value turned out to be 8.63%.

Consider `CCc1ccccc1NC(=O)N1CCc2ccccc2C1`, for which the “hERG current change (%, negative = inhibition) at 1uM” value is 14.1%.

`COc1ccc(C#Cc2c(C=O)n(C)c3ccccc23)cc1`: the “hERG current change (%, negative = inhibition) at 1uM” value is 13.5%.

With `COCC1CCN(C(=O)c2ccc(OC3CCN(Cc4ccccn4)CC3)cc2)C1` (stereo not drawn), the “hERG current change (%, negative = inhibition) at 1uM” value is 3.06%.

Take `O=C(N/N=C/c1ccc2c(c1)OCO2)/C(=C/c1ccc2c(c1)OCO2)NC(=O)c1ccccc1`: the “hERG current change (%, negative = inhibition) at 1uM” value stood at 8.61%.

`CCC(C)(C)c1nnc(NC(=O)c2cccc([N+](=O)[O-])c2)s1`: the “hERG current change (%, negative = inhibition) at 1uM” value was 0.343%.

In the case of `CCN(CC)S(=O)(=O)c1ccc(C(=O)OCn2nnc3ccccc3c2=O)cc1`, the “hERG current change (%, negative = inhibition) at 1uM” value came to 0.225%.

In the case of `S=C(NCCSCc1ccc(Cl)cc1Cl)Nc1ccccc1`, the “hERG current change (%, negative = inhibition) at 1uM” value is recorded as 8.19%.

Regarding `COc1ccccc1-c1ccc(=O)n(CC(=O)NCc2cccs2)n1`, the “hERG current change (%, negative = inhibition) at 1uM” value was 15.8%.

`CC(C)n1c(CCC(=O)O)ccc1-c1ccccc1`: the “hERG current change (%, negative = inhibition) at 1uM” value was determined as 10.3%.

As for `CCOC(=O)c1cnc(SC)nc1N`, the “hERG current change (%, negative = inhibition) at 1uM” value is on record as -2.51%.

Turning to `O=C(CCCl)Nc1nnc(SCC(=O)NC2CCCC2)s1`, the “hERG current change (%, negative = inhibition) at 1uM” value was determined as 2.16%.

For `COC(=O)CSc1nc(C)c(C(C)=O)cc1C#N`, the “hERG current change (%, negative = inhibition) at 1uM” value is recorded as -6.22%.

Turning to `COc1cc(OC)cc(-c2nc3ccccc3c(=O)n2OC(=O)c2ccccc2C)c1`, the “hERG current change (%, negative = inhibition) at 1uM” value is 9.57%.

In the case of `CCOc1nc(NC(=O)NS(=O)(=O)c2cccc(Cl)c2)nc(-c2ccccc2)n1`, the “hERG current change (%, negative = inhibition) at 1uM” value is 9.07%.

Consider `COc1cccc(/C(O)=C2/C(=O)C(=O)N(CCN(C)C)C2c2ccc(Br)cc2)c1` (stereo not drawn), for which the “hERG current change (%, negative = inhibition) at 1uM” value is reported as 13.3%.

Take `O=C1COc2ccc(C(=O)CSc3nnc(Cc4cccs4)n3-c3ccccc3)cc2N1`: the “hERG current change (%, negative = inhibition) at 1uM” value is given as -32.7%.

As to `Cc1nn(C)cc1CN1CCCC(C(=O)c2ccc(-c3ccccc3)cc2)C1` (stereo not drawn), the “hERG current change (%, negative = inhibition) at 1uM” value is given as -6.4%.

Turning to `Cc1cccc(NC(=O)OC2CN3CCC2CC3)c1` (stereo not drawn), the “hERG current change (%, negative = inhibition) at 1uM” value came out at 11.5%.

Consider `CCc1nn(CCCC(=O)NCc2ccc(C)cc2)c(=O)c2cc3occc3n12`, for which the “hERG current change (%, negative = inhibition) at 1uM” value was determined as 6.61%.

As for `Brc1cc2c(cc1CSc1ncccn1)OCO2`, the “hERG current change (%, negative = inhibition) at 1uM” value is listed as 11.7%.

Take `Nc1ccc(Oc2ccc(Br)cc2)cc1`: the “hERG current change (%, negative = inhibition) at 1uM” value was determined as 7%.

As to `O=C(CN1CCN(c2cccc(Cl)n2)CC1)N1CC(O)CO1` (stereo not drawn), the “hERG current change (%, negative = inhibition) at 1uM” value worked out at 18.6%.

Consider `Cc1ccc(C)c(OCC(=O)Nc2ccc(S(=O)(=O)Nc3ccccn3)cc2)c1`, for which the “hERG current change (%, negative = inhibition) at 1uM” value came to 11.5%.

For `COc1ccc(S(=O)(=O)NC(C)C(=O)N2CCCC2)cc1Cl` (stereo not drawn), the “hERG current change (%, negative = inhibition) at 1uM” value is 14.4%.

Regarding `CC(NC(c1ccccc1)c1ccccc1)C(=O)N1CCCc2ccccc21` (stereo not drawn), the “hERG current change (%, negative = inhibition) at 1uM” value is listed as 9.67%.

Turning to `O=C1c2oc3ccccc3c(=O)c2C(c2cccc(Br)c2)N1Cc1ccco1` (stereo not drawn), the “hERG current change (%, negative = inhibition) at 1uM” value is given as -7.63%.

For `O=C(C1CC1)N1CCc2cc(S(=O)(=O)NCCC3=CCCCC3)ccc21`, the “hERG current change (%, negative = inhibition) at 1uM” value was determined as 12.3%.

In the case of `Cc1ccccc1-c1nc(Cc2ccccc2)no1`, the “hERG current change (%, negative = inhibition) at 1uM” value was 15.1%.

Take `O=C(COC(=O)CCc1nc2ccccc2s1)Nc1nc(-c2ccccc2)cs1`: the “hERG current change (%, negative = inhibition) at 1uM” value is 4.5%.

For `CSc1ccc(CN(C)C(=O)C(Cc2ccccc2)NC(=O)c2ccccc2)cc1` (stereo not drawn), the “hERG current change (%, negative = inhibition) at 1uM” value is on record as 8.17%.

Consider `COc1ccc(C(C)=O)cc1CN(C)C.Cl`, for which the “hERG current change (%, negative = inhibition) at 1uM” value was 16.2%.

With `Cc1ccc(-c2cc(C(=O)N3CCN(c4ccc(F)cc4)CC3)c3ccccc3n2)o1`, the “hERG current change (%, negative = inhibition) at 1uM” value was determined as 5.27%.

On to `CCN(CC)S(=O)(=O)c1ccc(-c2cn3cc(Cl)ccc3n2)cc1`, for which the “hERG current change (%, negative = inhibition) at 1uM” value stood at 6.26%.

On to `Oc1ccccc1C=NC1CCCCC1N=Cc1ccccc1O` (stereo not drawn), for which the “hERG current change (%, negative = inhibition) at 1uM” value came out at 18%.

For the compound `Brc1cc2c(cc1Br)OCCOCCOCCOCCO2`, the “hERG current change (%, negative = inhibition) at 1uM” value is listed as -38.2%.

Consider `O=Cc1cccn1Cc1ccc(Cl)cc1Cl`, for which the “hERG current change (%, negative = inhibition) at 1uM” value is on record as 1.4%.

Take `CC(=O)N(C)c1ccc(C(O)(C(F)(F)F)C(F)(F)F)cc1`: the “hERG current change (%, negative = inhibition) at 1uM” value came out at 12.5%.

For `COc1ccc(CNC(=O)C2CCN(c3cc(C(=O)Nc4cccc(OC)c4)ccn3)CC2)cc1`, the “hERG current change (%, negative = inhibition) at 1uM” value is listed as -6.86%.

Consider `Cc1nc(-n2nnc3cc(C)c(C)cc32)c2c3c(sc2n1)CCCC3`, for which the “hERG current change (%, negative = inhibition) at 1uM” value was 2.21%.

On to `CC(C)CCN(CCC(C)C)C(=O)Cc1c(O)c2ccccc2[nH]c1=O`, for which the “hERG current change (%, negative = inhibition) at 1uM” value came to 8.87%.

As to `CCOc1ccccc1N(CC(=O)NCc1ccc(OC)cc1)S(C)(=O)=O`, the “hERG current change (%, negative = inhibition) at 1uM” value was 3.96%.

Consider `COc1cccc(CN(C(=O)c2ccco2)C(C(=O)NC2CCCC2)c2cccnc2)c1` (stereo not drawn), for which the “hERG current change (%, negative = inhibition) at 1uM” value came to 9.48%.

With `COC(=O)N/N=C(\C)c1ccc(-n2ccnc2)cc1`, the “hERG current change (%, negative = inhibition) at 1uM” value is given as 15.5%.

On to `O=[N+]([O-])c1cc(Cl)ccc1NCCNc1ncc(C(F)(F)F)cc1Cl`, for which the “hERG current change (%, negative = inhibition) at 1uM” value came to 3.79%.

For the compound `O=C(COC(=O)C1CSC2(c3ccc(F)cc3)CCC(=O)N12)NC(=O)NC1CCCC1` (stereo not drawn), the “hERG current change (%, negative = inhibition) at 1uM” value turned out to be 9.7%.

As for `CC(=O)N1CCN(c2ccc(NC(=O)c3ccco3)cc2Cl)CC1`, the “hERG current change (%, negative = inhibition) at 1uM” value is 6.51%.

For `CCC(=O)Nc1ccc(Cl)c(NC(=O)c2ccc([N+](=O)[O-])cc2)c1`, the “hERG current change (%, negative = inhibition) at 1uM” value is 11.7%.

`COc1ccccc1N1CCN(C(=O)c2ccc(CN3CCc4ccccc4C3)cc2)CC1`: the “hERG current change (%, negative = inhibition) at 1uM” value stood at 9.69%.

Regarding `CCc1cccc(NC(=O)Cn2cccc2)c1`, the “hERG current change (%, negative = inhibition) at 1uM” value is -3.81%.

As for `CCOC(=O)c1ccc(NC(=O)Nc2ccc3c4c(cccc24)C(=O)N3CC)cc1`, the “hERG current change (%, negative = inhibition) at 1uM” value is listed as 12.5%.

For the compound `CN(C)CC/C=C1/c2ccccc2Sc2ccc(Cl)cc21.Cl`, the “hERG current change (%, negative = inhibition) at 1uM” value was -16.4%.

Consider `CCOC(=O)C1CCCN(c2c(C(=O)c3ccccc3)cnc3ccccc23)C1` (stereo not drawn), for which the “hERG current change (%, negative = inhibition) at 1uM” value stood at 12.2%.

Turning to `Cc1[nH]c2ccc(F)cc2c1CCN(Cc1ccncc1)C(=S)Nc1cccc(F)c1`, the “hERG current change (%, negative = inhibition) at 1uM” value was 8.53%.

On to `COc1c(Cl)cc(Cl)cc1C(=O)Nc1ccccc1N1CCN(C(C)=O)CC1`, for which the “hERG current change (%, negative = inhibition) at 1uM” value was 11.2%.

Consider `O=C(CSc1ncn[nH]1)Nc1nc(-c2ccccc2)cs1`, for which the “hERG current change (%, negative = inhibition) at 1uM” value worked out at 6.6%.

For the compound `CC(CNC(=O)CN1C(=O)c2cccnc2Oc2ccc(Cl)cc21)c1ccccc1` (stereo not drawn), the “hERG current change (%, negative = inhibition) at 1uM” value worked out at 14.1%.
